Hit rate of the full screen: of about 46,000 compounds, about 60 (0.1%) were called active. Not shown: some 3% with an inconclusive outcome. The call rests on the fitted dose curve; in most records, active means well fitted inhibition curve with a large enough effect; inconclusive means small, poorly fitted or top-dose-only effect; inactive means no such curve, though single readings can be large or run the other way. The list shows a part of the results.
Test: Primary qHTS assay for Inhibitors of ovarian cancer metastasis using an organotypic tumor microenvironment (TME) model. Further: nearly all actives have a fitted effect of over 65% in size.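 On activity change, negative = inhibition: plate controls were DMSO wells for no effect and tomatine positive control wells for full effect.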
Details: SKOV3ip1-GFP adhesion/invasion on 3D omental model, fluorescence; series mostly up to 45.8 µM; activity change, negative = inhibition: at the top concentration
Procedure, shortened: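 qHTS, 4-pt dose (0.36-46 umol/L); SKOV3ip1-GFP, 1,200 cells/well, no FBS; primary omental fibroblast/mesothelial co-culture 48 h pre-grown; 2 h RT + 16 h 37 C; PBS wash, 4% PFA; GFP count 488/509 nm.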

Activity change, negative = inhibition, inactive:
COc1ccc(OC)c2sc(N3CCN(C(=O)c4ccc5c(c4)CCCC5)CC3)nc12 9.87%, CCC1CCc2nc3sc(C(=O)Nc4ccc(C)cc4)c(N)c3cc2C1 (configuration not stated) -4.64%, CCCCCn1c(=O)[nH]c2cc(C(=O)NCc3ccc(Cl)cc3)ccc2c1=O 45.2%, Cn1c(=O)c2cc(C(=O)NCCCN3CCN(c4cccc(Cl)c4)CC3)sc2c2ccccc21 1.18%, CCOc1ccc(CCNC(=O)c2nn(-c3ccc(OC)c(Cl)c3)c(=O)c3c2c2ccccc2n3C)cc1OCC 17.9%, CC(C)NC(=O)c1ccc(-n2c(-c3ccccc3)cc3c2CCCC3)cc1 0.8%, CCc1ccc(NC(=O)CSc2nc(-c3ccccc3Cl)nc3c2Cc2c(CO)cnc(C)c2O3)cc1 -25.2%, COc1ccc(OCC(=O)Nc2ccc3c(c2)nc(CCNC(=O)c2ccco2)n3C)cc1 -26.8%, O=C(COc1ccc(Br)cc1Cl)Nc1ncn[nH]1 13.4%, O=C(Nc1ccc(Br)cc1)c1ccc(F)c(S(=O)(=O)N2CCCc3ccccc32)c1 -0.767%, CC(C)Cn1c(=O)c2sccc2n2c(CCCC(=O)NCCc3ccc(Cl)cc3)nnc12 -3.71%, CCOC(=O)c1ccc(CN(Cc2ccc(Cl)cc2Cl)S(=O)(=O)c2ccc(F)c(C)c2)cc1 -9.15%, COCCOc1ccc2c(c1)ncn2-c1ccc2cccc(N3CCC(N)CC3)c2n1 4.73%, CCC(=O)N1CCc2cc(S(=O)(=O)NC(CC(C)C)C(=O)NCCc3cccc(C)c3)ccc21 (configuration not stated) 6.72%, COc1cccc(NC(=O)CSCc2cc(=O)c3ccc(C)c(C)c3[nH]2)c1 0.298%, Cc1ccc(NC(=O)CSc2nccn2Cc2ccco2)cc1Cl -2.15%, O=c1ccc2cc(S(=O)(=O)NCc3ccc(Br)cc3)ccc2[nH]1 -26.3%, COc1ccc(OC)c(CNS(=O)(=O)c2ccc3[nH]c4c(c3c2)CCCCC4)c1 14.4%, Cn1c(=O)c2c(n3c4ccccc4nc13)NC(=O)CC2c1cccc(F)c1 (configuration not stated) 12.6%, O=C(CCCCn1c(=O)c2ccccc2n(Cc2ccccc2Cl)c1=O)NCc1ccc2c(c1)OCO2 -16.6%, Cc1cc(NC(=O)COCc2cc(-c3ccc(F)cc3)on2)ccc1Br -6.95%, CCNc1ccc(-c2nc(-c3ccccn3)no2)cc1[N+](=O)[O-] -5.79%, CC(C)Oc1cccc(C(=O)Nc2ccc3oc(-c4cccc(Cl)c4)nc3c2)c1 -2.75%, CCOc1ccc(CCNS(=O)(=O)c2c(C)nc3scc(C)n3c2=O)cc1OCC -13%, CCCn1c2ccccc2c2cnn(CC(=O)N3CCN(c4ccccc4F)CC3)c(=O)c21 16.4%, CC(=O)N1CCCc2cc(S(=O)(=O)NCc3cccc(C)c3)ccc21 9.46%, COc1ccc(CNC(=O)CCC2N=C3c4ccccc4N=C(SCc4cccc(F)c4)N3C2=O)cc1 (configuration not stated) 6.36%, O=c1c2cnn(-c3ccc(F)cc3)c2ncn1Cc1cccc(Cl)c1 3.46%, CCCN(CCC)C(=O)Cn1nnc2sc(-c3ccccc3)cc2c1=O 4.3%, Cc1ccc(C(=O)c2cn(Cc3cccc(C)c3)c3nc(C)ccc3c2=O)cc1 7.07%, O=C(C=Cc1ccc(CN(CCO)CCc2c[nH]c3ccccc23)cc1)NO -1.67%, COC(=O)c1cc(S(=O)(=O)N2CCN(c3ccc(OC)cc3)CC2)c[nH]1 6.97%, Cc1cc(C)n2c(Nc3ccc4c(c3)OCCO4)c(-c3ccc(Cl)cc3)nc2n1 9.1%, CC(C)CC(=O)Nc1nc2nc(-c3ccccc3)cc(=O)n2[nH]1 1.16%, CCCCOc1ccc(C2=NC(c3cccs3)=Nc3ccc(CC)cc3N2)cc1 0.319%, COC(=O)c1c(Oc2ccc(OC)cc2)nnc(-c2ccccc2)c1-c1ccccc1 -13.1%, CCCN1CCN(C(=O)Cn2c(-c3cccs3)cc3ccccc32)CC1 -19.4%, Cc1ccc(NC(=O)c2cnc(N3CCCCC3)c3ccccc23)c(C)c1 7.28%, Cc1cc(N2CCCCC2)nc2ccc(NC(=O)/C=C/c3ccc(OC(C)C)cc3)cc12 -11.6%, Cc1ccc(CNC(=O)c2cccn2-c2nnc(N3CCCC3)s2)cc1 -2.32%, Cc1ccc2c(CC(=O)Nc3ccc(S(=O)(=O)N4CCCCC4C)cc3)coc2c1 (configuration not stated) -6.96%, Cn1cc(-c2[nH]c3cc(NC(=O)[C@H](N)C4CCCCC4)cc4c3c2C=NNC4=O)cn1 21.9%, CCOc1ccccc1CNC(=O)c1ccc(N2Cc3ccccc3Oc3ncccc32)s1 7.69%, COc1ccc(CNC(=O)CCCn2nc(C)c3sc4ccccc4c3c2=O)cc1OC -3.84%, O=C(Nc1ccc(Br)cc1F)C1CCN(c2nc3ccccc3[nH]2)CC1 -9.72%, CCC1CCCCN1CCCNC(=O)CN1C(=O)c2cccnc2Oc2ccc(C)cc21 (configuration not stated) -7.18%, CCOc1ccc2nc(N3CCC(C(=O)Nc4ccccc4CC)CC3)sc2c1 -9.59%, Cc1ccc(CNC(=O)CCc2c(C)c3ccc(O)c(C)c3oc2=O)cc1 0.939%, CCOc1cc2[nH]c(=O)n(CCCCC(=O)N3CCN(c4ccc(OC)cc4)CC3)c(=O)c2cc1OCC -1.15%, CCOc1ccc(C(=O)Nc2nnc(S(=O)(=O)Nc3ccccc3)s2)cc1 29.9%, Cc1ccc(S(=O)(=O)c2[nH]c(-c3ccccc3)nc2SCC(N)=O)cc1 -28.4%, COc1ccc(NC(=O)CCn2c(=O)c3cccn3c3cccnc32)cc1Cl -1.73%, CC1(C)CNc2cc(NC(=O)c3cccnc3NCc3ccncc3)ccc21 5.95%, Cc1ccc(CCNc2ncnc3onc(-c4ccc(F)cc4)c23)cc1 4.3%, COc1cccc(CNC(=O)Cn2c(=O)n3nc(-c4cccc(F)c4)nc3c3ccccc32)c1 -2.43%, CCN(CC)C(=O)c1sc2c(c1C)c(=O)n(-c1ccc(Cl)c(Cl)c1)c(=O)n2Cc1cc(=O)n2ccccc2n1 -9.83%, CC(C)C(=O)N1c2nc(-c3ccco3)nn2C2(CCCCC2)[C@@H]2CCCC[C@@H]21 -13.6%, CC(=O)Nc1ccc(S(=O)(=O)N2CCC(c3nnc(-c4ccc(C)cc4)o3)CC2)cc1 -3.81%, Cc1oc2c(cc(NS(=O)(=O)c3ccc(C(C)C)cc3)c3ccccc32)c1C(=O)O 4.05%, COc1ccc(-n2ncc3c2ncn2nc(COc4ccc(Cl)cc4)nc32)cc1 1.51%, COc1ccc(CNC(=O)C2=C(C)C(=O)OC23CCCCC3)cc1 1.79%, CCCSc1nnc2c(n1)OC(c1ccc(Br)s1)Nc1ccccc1-2 (configuration not stated) 3.99%, Cc1ccc2oc3c(c(=O)c2c1)C(c1ccccc1F)N(CCCN(C)C)C3=O (configuration not stated) 3.87%, CCOc1ccccc1NC(=O)C(CC)Sc1nc2ncccc2[nH]1 (configuration not stated) -0.43%, O=C(NCc1ccc2c(c1)CCN2C(=O)c1ccccc1)c1ccccc1 4.19%, Cc1ccc(C)c(N2CCN(C(=O)CCS(=O)(=O)c3cc4c(cc3Cl)NC(=O)CO4)CC2)c1 22.4%, COC(=O)c1sc2ncccc2c1-n1c(C)ccc1C 1.33%, CCOC(=O)N1CCN(C(=O)c2c(C)nn(-c3cccc(C)c3)c2-n2cccc2)CC1 -8.64%, COc1ccccc1CNS(=O)(=O)c1ccc2c(c1)CC(=O)N2C -1.24%, Cc1oc(-c2ccccc2Cl)nc1CS(=O)CC(=O)NCc1ccc(Cl)cc1 (configuration not stated) -6.32%, Cc1cc(C(F)F)n2nc(C(=O)Nc3ccc(C(C)C)cc3)nc2n1 2.47%, CCC1CN(C(=O)Nc2cccc3c2CCCC3)c2cc(Cl)ccc2O1 (configuration not stated) -14.5%

outcome, inactive:
COc1ccccc1C(=O)NCCn1cc(SCc2ccc(C)cc2)c2ccccc21, COc1ccc(C2CC(=O)N(Cc3ccc(F)cc3)c3ccccc3S2)cc1OC (configuration not stated), Cc1nn(-c2ccccc2)c(-n2cccc2)c1C(=O)NCCc1ccc(Cl)cc1, CCc1ccc2nc(N(Cc3cccnc3)C(C)=O)sc2c1, Cc1ccc(C)c(NC(=O)N2CCC(CN3CCOCC3)CC2)c1, COc1cccc(N2CCN(C(=O)CCCn3c(=O)[nH]c4ccc(Br)cc4c3=O)CC2)c1, CCOc1ccc(CNC(=O)c2ccc3nc(CC)c(CC)nc3c2)cc1, Cc1cc(C)n(-c2nc3ccccc3nc2Nc2ccc(Cl)cc2Cl)n1, CCn1c(=O)c2cc(C(=O)NCCCOC)sc2c2ccccc21, CC(C)Oc1ccc(CNS(=O)(=O)c2ccc3c(c2)C(C)(C)C(=O)N3C)cc1, Cc1ccc(CNC(=O)c2nc(SCc3ccc(F)cc3)ncc2Cl)cc1, COc1ccc(NC(=O)Cn2c(=O)n(-c3ccccc3)c(=O)c3c4c(sc32)CCCC4)c(OC)c1, Cc1nn2c(=O)cc(COC(=O)c3cccc(NC(=O)COc4ccccc4Cl)c3)nc2s1, COc1ccc(S(=O)(=O)n2nc(C)c(S(=O)(=O)N3CCCCCC3)c2C)cc1, COCCCNC(=O)C1CCN(C(=O)c2cnn(-c3ccccc3)c2-n2cccc2)CC1, COc1cccc(NC(=O)CN2C(=O)CSc3ccc(S(=O)(=O)N4CCCC4)cc32)c1, Cc1cccc(NC(=O)N2CCN(C(=O)c3nsc4ccccc34)CC2)c1C, Cc1ccc(N2C(=O)NC(NS(=O)(=O)c3ccccc3)(C(F)(F)F)C2=O)cc1C (configuration not stated), COC(=O)COc1ccc2oc(-c3ccc(OC)cc3)cc(=O)c2c1, COc1ccc(N2CCN(C(=O)c3cnn(-c4ccc(F)cc4)c3-n3cccc3)CC2)cc1, Clc1ccc2c(c1)-c1c(cnc3cc(-c4ccccc4)nn13)CO2, CC1CN(C(=O)N2CCC(C(=O)N3CCN(c4ccccc4)CC3)CC2)c2cc(Cl)ccc2O1 (configuration not stated), CSc1cccc(Nc2cc(C(=O)NCCc3ccc(Cl)cc3)c3ccccc3n2)c1, O=C1CCCc2cc(S(=O)(=O)N3CCCC(C(=O)Nc4ccc(F)c(Cl)c4)C3)ccc2N1 (configuration not stated), O=C(Cn1c(=O)n(CCCS(=O)(=O)C2CCCCC2)c(=O)c2ccccc21)Nc1ccccc1C(F)(F)F
